Test results as given in PubChem BioAssay AID1508624 (National Center for Advancing Translational Sciences (NCATS), 2021).
The whole screen tested about 48,000 compounds, of which about 120 (0.25%) were called active. Not shown: some 4% with an inconclusive outcome. The call rests on the fitted dose curve; in most records, active means well fitted activation curve with a large enough effect; inconclusive means small, poorly fitted or top-dose-only effect, or another doubt; inactive means no such curve, though single readings can be large or run the other way. This is one part of the list.

test: Primary qHTS for Identification of Small Molecule Activators of Huntingtin-Antisense Promoter Activity; settings: HEK293 HTT-AS promoter firefly luciferase reporter (activity 0% = vehicle and -100% = no light), 24 h; series mostly up to 57.5 µM; activity change, positive = activation: at the top concentration; further: nearly all actives have a fitted effect of over 55% in size
Outline: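 Luminescence was read after Dual-Glo reagent and a 10 min room-temperature incubation. Values were normalized to vehicle (0% activity) and zero RLU (-100% activity). Reporter HEK293 cells had been exposed to compounds (up to 57.5 uM final) for 24 h.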

Activity change, positive = activation, inactive:
Cc1ccc(S(=O)(=O)c2cn(Cc3cccc(C)c3)c3cc4c(cc3c2=O)OCO4)cc1 -5.8%
Cc1ccc(Cl)cc1NC(=O)c1oc2ccc(S(=O)(=O)N(C)C3CCCCC3)cc2c1C -12.7%
CC(=O)CSc1nnc2cc(C)c3cc(C)cc(C)c3n12 -11.2%
Cc1ccc(S(=O)(=O)N2CCC(C(=O)Nc3ccc(C)c(Cl)c3)CC2)cc1 -30.9%
COc1ccc(CCNC(=O)C(=O)NCC(c2cccs2)S(=O)(=O)c2ccc(C)cc2)cc1 (stereo not given) -34.6%
O=C1c2[nH]nc(-c3ccccc3O)c2C(c2cccc(OCc3ccccc3)c2)N1CCO (stereo not given) -11.7%
CCOC(=O)c1c(C)[nH]c(C)c1S(=O)(=O)N1CCN(c2cccc(C(F)(F)F)c2)CC1 -43.1%
CCN(CC)C(=O)Cn1c(=O)n(-c2ccc(Cl)cc2)c(=O)c2c3c(sc21)CCC3 -1.71%
COc1ccc(-n2nc(C)c3c(C(F)(F)F)cc(-c4cccnc4)nc32)cc1 -4.27%
Cc1cn2c(=O)cc(COC(=O)c3cccc(NC(=O)c4ccccc4C)c3)nc2s1 -14.5%
COc1ccc(C(=O)COC(=O)C(Cc2c[nH]c3ccccc23)NC(=O)c2ccc(C(C)(C)C)cc2)cc1 (stereo not given) 2.38%
CCOC(=O)c1cc(OC(=O)c2ccccc2C)n(-c2ccccc2)n1 -2.03%
CC1(C)NC(=O)N(c2ccc([N+](=O)[O-])c(C(F)(F)F)c2)C1=O
COc1cccc(N2CCN(C(=O)CCS(=O)(=O)c3ccc4c(c3)oc(=O)n4C)CC2)c1 -5.49%
COCCCNC(=O)C1CCN(c2nc3ccc(C)cc3[nH]2)CC1 5.71%
CCN(C(=O)CSc1nc(-c2ccc(C(C)C)cc2)no1)c1cccc(C)c1 -21.9%
COc1ccc(OC)c(NS(=O)(=O)c2ccc(-c3cc(C)no3)s2)c1 -47.6%
COc1ccc(CNC(=O)CCCn2nc(C)c3c(C)n(-c4ccccc4)nc3c2=O)cc1 -10.7%
Cc1cccc(C(=O)Nc2nnc(S(=O)(=O)N(C)c3ccccc3C)s2)c1 -37.2%
Cc1ccc(-n2c(-c3ccco3)nc3c(cnn3-c3ccccc3Cl)c2=O)cc1 -12.2%
CCCCCCc1ccc(O)cc1O -1.64%
CC(C)c1cnc2c(c1SCC(=O)Nc1cccc(F)c1)c(=O)n(C)c(=O)n2C -24.3%
Cc1ccc(Cl)cc1Nc1nn2c(=O)c3ccc(C(=O)N4CCCC(C)C4)cc3nc2s1 (stereo not given) -29.4%
CCn1cc2nc(SCc3cccc(Cl)c3)n(Cc3ccc(C)cc3)c(=O)c2n1 -1.41%
COc1ccc(CCNS(=O)(=O)c2cc(-c3cc(C)no3)ccc2C)cc1OC -11.4%
O=C(Nc1cccc(F)c1)C1CCN(S(=O)(=O)c2cccc3nsnc23)CC1 -16.6%
CN(C)c1ccc(CNC(=O)CCn2cccn2)cc1 -3.28%
CCc1ccc(CN2CCc3nc(N4CCN(CC)CC4)ncc3C2)cc1 -18.8%
Cc1ccc(CCNC(=O)c2ccc3c(c2)N(Cc2cccc(Cl)c2)C(=O)c2ccccc2S3(=O)=O)cc1 -7.47%
Cc1cc(C)cc(OC(C)C(=O)Nc2c(C(=O)c3ccccc3)oc3ccccc23)c1 (stereo not given) -3.29%
O=C(Nc1cccc(C(F)(F)F)c1)C1CCCN1S(=O)(=O)c1cccc2nsnc12 (stereo not given) -41.3%
CSc1ccc(C2c3c(oc4cc(C)cc(C)c4c3=O)C(=O)N2Cc2ccco2)cc1 (stereo not given) 5.83%
CCCN(CCC)S(=O)(=O)c1ccc(C(=O)Nc2sc3c(c2C(=O)OC)CCN(CC)C3)cc1 -29.2%
Cc1ccc(OCC(=O)Nc2ccc3nc(SCC(=O)N4CCOCC4)sc3c2)cc1 0.0727%
COc1ccccc1NC(=O)CSc1ncc2c(n1)-c1cc(Cl)ccc1N(Cc1ccccc1)S2(=O)=O -25.8%
CCCCc1c(C)nc2c(-c3ccc(OC)cc3)c(C)[nH]n2c1=O -23.7%
CCCCNC(=O)CCCn1c(=O)c2ccccc2n(Cc2cccc(Cl)c2)c1=O -36.7%
Cn1c(CN2CCCCC2)nc2cc(NC(=O)c3ccccc3Cl)ccc21 -44%
COc1ccc2nc(NC(=O)c3nc(SC(C)C)ncc3Cl)sc2c1 -8.51%
O=C(NC1CCCC1)c1cc(Nc2cccc(C(F)(F)F)c2)nc2ccccc12 -15.9%
CCC(=O)N1CCc2cc(Br)cc(S(=O)(=O)CCC(=O)N3CCN(c4ccccc4F)CC3)c21 14.6%
NC(=O)c1nc(Nc2ccccc2)sc1NC(=O)c1ccccc1Br 17.5%
CCOC(=O)c1cccc(NS(=O)(=O)c2ccc(-c3cnc(C4CC4)o3)cc2)c1 -37%
COc1cc(OC)cc(-c2cc3nc(C)c(CCC(=O)NCc4ccc(Cl)cc4)c(C)n3n2)c1 -86.5%
Cc1cc2oc(=O)cc(C)c2c2occ(-c3ccc(Cl)cc3)c12 -15.6%
Cc1cccc(N2CCN(C(=O)Cn3ncc4c5ccccc5n(C)c4c3=O)CC2)c1C -9.76%
COc1ccc(C(=O)Nc2ccc(-n3nncc3-c3ccccc3)cc2)cc1OC -6.93%
Cc1ccc2[nH]c3c(=O)n(CC(=O)N4CCCCC4)ncc3c2c1 2.08%
Clc1ccc(C(c2ccccc2)c2c[nH]c3ccccc23)s1 (stereo not given) -27.7%
Cc1ccc(C)n1-c1nnc(N2CCCC(C(=O)NCc3cccc(F)c3)C2)s1 (stereo not given) -18%
COc1ccc(OC)c(CNC(=O)C2CCN(c3nc4ccccc4nc3C(F)(F)F)CC2)c1 13.5%
Cc1ccc(-n2nc(CO)c(C(=O)NCc3cccnc3)n2)cc1 -35.5%
CCc1ccc(S(=O)(=O)c2cn(Cc3ccccc3)c3cc(F)c(F)cc3c2=O)cc1 5.78%
CCc1ccccc1Nc1nc2ccccc2c2nncn12 -11.7%
COc1cc(NC(=O)Nc2cccc(-c3noc(C)n3)c2)cc(OC)c1OC -26.6%
CCOc1ccc(-n2c(=O)c3c(C)c(C)sc3n(CC(=O)N(CC)Cc3ccccc3)c2=O)cc1 9.57%
CCC(C)n1ncn(-c2ccc(N3CCN(c4ccc(OC[C@H]5CO[C@](Cn6cncn6)(c6ccc(Cl)cc6Cl)O5)cc4)CC3)cc2)c1=O (stereo not given in full)
Cc1ccc(Cl)cc1NC(=O)Cc1ccc(-n2c(C)nc3cccnc32)cc1 -14.4%
CCOc1ccc(CNc2nc3nc(C)c(Cc4ccccc4)c(=O)n3[nH]2)cc1 -9.77%
COc1ccc2c(c1)CC(C(=O)Nc1cc(Cl)ccc1C)CO2 (stereo not given) -23.5%
CCc1ccc(CNC(=O)C2Cc3cc(S(=O)(=O)N4CCCCCC4)ccc3N2C(C)=O)cc1 (stereo not given) -1.18%
COc1cc(C2c3c(oc4ccccc4c3=O)C(=O)N2c2ccccn2)cc(OC)c1OC (stereo not given) -24.3%
COc1ccc(N(Cc2cccs2)C(=O)c2ccc(OCC(C)C)cc2)cc1 -20.9%
COC(=O)[C@@H]1[C@H]2C[C@H]3c4[nH]c5ccccc5c4CCN3C[C@@H]2CC[C@@H]1O 4.75%
CCCc1nn2c(=O)cc(COC(=O)c3ccccc3NC(=O)c3cccs3)nc2s1 -3.74%
Cc1ccc(C)c(C(=O)c2c(N)c(-c3nc(-c4ccc5c(c4)OCO5)cs3)c3ccccn23)c1 -12%
Cc1cccc(NC(=O)C2CCC(CNS(=O)(=O)c3ccc(Br)s3)CC2)c1 (stereo not given) -22%
Cc1ccc(OCC(=O)Nc2ccc(Cl)c(-c3nc4ncccc4o3)c2)c(C)c1 -12.3%
COc1cccc(C2CC(=O)N(c3ccc(F)cc3)C3=C2C(=O)OC3)c1OC (stereo not given) -11.3%
COCCCNC(=O)CSc1nc2c(sc3ccccc32)c(=O)n1CCc1ccccc1 7%
COc1cc(NC(=O)CSc2nc3ccccc3nc2Cc2ccc(Cl)cc2)cc(OC)c1 -0.645%
Cc1nc2c(c(C)c1CCC(=O)NCc1ccccc1)c(=O)n(C)c(=O)n2C -3.97%
C[C@@H](Cc1cc2c(c(C(N)=O)c1)N(CCCO)CC2)NCCOc1ccccc1OCC(F)(F)F -17.3%
CCOC(=O)c1cccc(NC(=O)c2cc3c(-c4cccc(OC)c4)nn(C)c3s2)c1 -18.2%
CC(C)(C)c1ccc(OCC(=O)Nc2ccc(S(=O)(=O)Nc3ncccn3)cc2)cc1 27%
O=C1Nc2ccc(Cl)cc2C(C#CC2CC2)(C(F)(F)F)O1 (stereo not given) -29.1%
Cc1ccc(S(=O)(=O)c2nc(S(C)(=O)=O)sc2N(C)Cc2ccccc2)cc1 -17.1%
Cc1cccc(NC(=O)C2CCC(CNS(=O)(=O)c3csc(C(N)=O)c3)CC2)c1C (stereo not given) -20.1%
COc1cccc(Nc2cc(C)nc3nc(-c4ccc(Cl)cc4)nn23)c1 0.99%
N#Cc1c(N)n(-c2cccc(Cl)c2)c2nc3ccccc3nc12 -15.9%
Cc1nn2c(=O)cc(COc3ccc(/C=C(\C#N)C(=O)Nc4ccc(F)cc4)cc3)nc2s1 -3.52%
Cc1nn(C)c2c1c(-c1ccccc1)cc(=O)n2CC(=O)Nc1ccccc1C(F)(F)F -18.3%
O=C(COc1ccccc1Cl)Nc1nnc(S(=O)(=O)N2CCCCCC2)s1 -20.8%
O=C(NCCCc1nc2ccccc2n1Cc1c(F)cccc1Cl)C1CCCCC1 -8.49%
COc1ccc(C(=O)N(Cc2ccc(C(C)C)cc2)C2CCS(=O)(=O)C2)cc1 (stereo not given) -16.1%
Cc1nc2nc(SCC(=O)NCCc3ccccc3)nn2c(C)c1Cc1c(F)cccc1Cl -12.4%
Cc1ccccc1CNS(=O)(=O)c1csc(C(N)=O)c1 4.01%
Cc1ccc(C(C)C)c(OCC(=O)N2CCC(c3nc4ccccc4o3)CC2)c1 -29.8%
CCn1c(SCCOc2ccccc2F)nc2ccccc21 -0.999%
CCOc1ccccc1C(=O)Nc1ccc2c(c1)N(C)C(=O)c1ccccc1S2 -48.3%
Cc1nn(-c2ccc(N3CCOCC3)nn2)c(C)c1CCC(=O)NCc1ccc(OC(C)C)cc1 -14.2%
Cc1c(C2=CCN(S(=O)(=O)c3ccc(CC(C)C)cc3)CC2)c2ccccc2n1CC(=O)N1CCCC1 -19.8%
Cc1ccc(C)c(NC(=O)CN2C(=O)COc3ccc(Cl)cc32)c1 -25.1%
Cn1c(=O)nc2n(-c3ccc(Cl)c(Cl)c3)c3cc(Cl)ccc3cc-2c1=O -14%
O=C(Nc1c(C(=O)Nc2ccc(F)cc2)oc2ccccc12)c1ccccc1F 9.72%
